The labels stand for the following.
B1: LINE1-mini (parent)
chain: GGCAGAGCUCAACACAGCGUGGCAAAGUGGCUGUGGCUAGACUGCC

The source gives no read counts; variants with many changes may rest on few reads.

The variants in this data set derive from B1. Briefly: self-cleavage, relative activity (ratio to wild type); higher = more cleavage; in vitro, sequencing; the parent is a self-cleaving ribozyme.
As to GGCAGAGCGCAACACAGCGUGGCAAAGUGACCGUGGAUAGACUGAC [U9G G30A U32C C37A C45A], the self-cleavage was 0.01.
Regarding GGCAGAGCGCAACUCAGGGUGGCAAAGUGGCUGUCGCUAGACUGCC [U9G A14U C18G G35C], the self-cleavage worked out at 0.12.
With GGCAGAGCGCAAUACAGCGUGGCAAAGUGGCUGUGGCUGGACUGCC [U9G C13U A39G], the self-cleavage worked out at 0.02.
Turning to GGCAGAGCGCAGCAAAGCGUGGCAUAGUGGCUGUGGCUAGACUGUC [U9G A12G C15A A25U C45U], the self-cleavage turned out to be 0.02.
Regarding GGCAGAGCGCAACACAGCGUUGCAAAGUGGCUAUGGUUAGACUGCC [U9G G21U G33A C37U], the self-cleavage was 0.03.
In the case of GGCAGAGCGCAACACCGCGUGGCAAAGUGGCUGUAGCUAGACUGCC [U9G A16C G35A], the self-cleavage stood at 0.02.
With GGCAGAGCGCAACUCAGCGUUGCAAAGUGGCUGUGGCUAGACUGCC [U9G A14U G21U], the self-cleavage turned out to be 0.02.
Consider GGCAGAGCGCAGCACAGCGUGGCAAAGUGGCUGUGGGUAGACUGCC [U9G A12G C37G], for which the self-cleavage stood at 0.02.
On to GGCAGAGCGCAACACAGCGUGGCAACGUGUCUGUGGCUAGACUGCC [U9G A26C G30U], for which the self-cleavage is 0.1.
Regarding GGCAGAGCGCAACACAGCGUGGCAGUGUGGCUGCGGGUAGACUGCC [U9G A25G A26U U34C C37G], the self-cleavage is 0.02.
Under GGCAGAGCGCGACACAGCGUGGCAAAGUGGCUGUGUCAAGACUGCC [U9G A11G G36U U38A] stands 0.
Regarding GGCAGAGCGCAACACAGCGUGGCUAAGUGGCUGUGGCUAGACUGUC [U9G A24U C45U], the self-cleavage worked out at 0.04.
As to GGCAGAGCGCAACAGAGCGUGGCAAAGCAGCUGUGGCUAGACUGCC [U9G C15G U28C G29A], the self-cleavage is 0.01.
Consider GGCAGAGCGCAACCCAGCGUGAAAAGGUGGCUGUGGCUAGACUGGC [U9G A14C G22A C23A A26G C45G], for which the self-cleavage was 0.04.
Consider GGCAGAGCGCAAAACAGCGUGGCAGAGUGGCUGUGGAUAGACUGCU [U9G C13A A25G C37A C46U], for which the self-cleavage was found to be 0.16.
In the case of GGCAGAGCGCUACACAGCAUGGCAAAGUGGCUGUGGCUAGACUGCC [U9G A11U G19A], the self-cleavage turned out to be 0.03.
As for GGCAGAGCGCAACACGGCGUGGCAAAGCGGCUGGGGCUAGACUGCC [U9G A16G U28C U34G], the self-cleavage stood at 0.04.
For GGCAGAGCGCUACACAGCUUGGCAACGUGGCUGUGGCUAGACUGCC [U9G A11U G19U A26C], the self-cleavage was 0.
GGCAGAGCGCAACAAAGCGUGGCAAAGUGGAUGUGGCUAGACUGCC [U9G C15A C31A]: the self-cleavage was 0.17.
As to GGCAGAGCGCAUCACACCGUGGCAUAGUGGCUGUGGCUAUACUGCC [U9G A12U G17C A25U G40U], the self-cleavage amounted to 0.07.
Turning to GGCAGAGCGCAACACAGCGUGGCAAAGUGGCUGUGGCUAGUCUCCC [U9G A41U G44C], the self-cleavage turned out to be 0.03.
Turning to GGCAGAGCGGAAAACAGCGUGGCAAAGUGGCUGUGGCUAGACUGCC [U9G C10G C13A], the self-cleavage worked out at 0.03.
The figure for GGCAGAGCGCAACACAGCGUGUCAAAGUGUCUGUGGCUAGACUGCC [U9G G22U G30U] is 0.03; for GGCAGAGCGCAACACACCGUGGCAAAGUGUCUGUGGCUAGACUCCC [U9G G17C G30U G44C] it is 0.01.
The figure for GGCAGAGCGCAACACAGCCUGGCAAUGUGGAUGUGGCUAGACUGCC [U9G G19C A26U C31A] is 0.21.
Regarding GGCAGAGCGCAAAACAGCGUGGCAAAGUGGCUGUGGCUAGACUUCC [U9G C13A G44U], the self-cleavage turned out to be 0.24.
For the variant GGCAGAGCGCAACACAGCGUGGCAAAGUGGCUCUGGAUAGACUGCC [U9G G33C C37A], the self-cleavage is 0.03.
As for GGCAGAGCGCAACACUGCGUGGAAAAGUGGCUGUGGCUAGACCGCC [U9G A16U C23A U43C], the self-cleavage came to 0.01.
As to GGCAGAGCGCAAUACAGCGUGGCUAAGUGGCGGUGGCUCGACUGCC [U9G C13U A24U U32G A39C], the self-cleavage turned out to be 0.07.
On to GGCAGAGCGUAACCCAGAGUGGCAAAGUGGCUGUGGCUAGACUGCC [U9G C10U A14C C18A], for which the self-cleavage was 0.02.
As to GGCAGAGCGCAACACAGCGUGGAAAGGUGGCUGUGGCUAGACCGCC [U9G C23A A26G U43C], the self-cleavage was found to be 0.1.
The figure for GGCAGAGCGCAACACAGCGUGGUGAAGUGGCUGUGGCUUGACUGCC [U9G C23U A24G A39U] is 0.03; for GGCAGAGCGAAACACAGCCUGGCAAAGUGGCUGUGGCUAGACUGCC [U9G C10A G19C] it is 0.01.
As to GGCAGAGCGAAACACAGCGUGGCCAAGUGGCUGUGGCUAGACUGCC [U9G C10A A24C], the self-cleavage turned out to be 0.01.
GGCAGAGCGCAACACAGCGAGGCAAAGUGGCUGAGGCUAGACUGCC [U9G U20A U34A]: the self-cleavage worked out at 0.14.
On to GGCAGAGCGCAACACAGCGUGGCAAAGUGGCUCUGGCUACACUGCC [U9G G33C G40C], for which the self-cleavage turned out to be 0.03.
Consider GGCAGAGCGCAACCCAGCGUGGAAAAGUGGCUGUGGCUAGACUGCC [U9G A14C C23A], for which the self-cleavage came out at 0.1.
The figure for GGCAGAGCGUAACAAAGCGUGGAAAAGUGGGUGUUCCUAGACUGCC [U9G C10U C15A C23A C31G G35U G36C] is 0.07.
Consider GGCAGAGCGCAACACAGCGUGGCAAAGUAGCUGUGGCUAUACUGCC [U9G G29A G40U], for which the self-cleavage is 0.02.
As for GGCAGAGCGCAACACAGCGUGUCAAAGUGGCUGUGGCUAGGCUGCC [U9G G22U A41G], the self-cleavage came out at 0.07.
Turning to GGCAGAGCGCACCACAGCGUGGCAAAGUGGCUGGGGCUAGACUCCC [U9G A12C U34G G44C], the self-cleavage was determined as 0.
As to GGCAGAGCGCAACACAGCGUGGUAAAGUGGCUGUGGAUAGACUGCC [U9G C23U C37A], the self-cleavage is 0.13.
In the case of GGCAGAGCGCAACACAGGGUGGCAAAGUGGCAGUGGCUAGACUGCC [U9G C18G U32A], the self-cleavage was determined as 0.02.
Take GGCAGAGCGCAAAACAGCGUGUCAAAGUGGCUUUGGCUAUACUGCC [U9G C13A G22U G33U G40U]: the self-cleavage came to 0.02.
For GGCAGAGCGCAACACAGCGUGGCAAAUUGGCUGGGGCUAGACUGCC [U9G G27U U34G], the self-cleavage is 0.02.
For GGCAGAGCGUAACACAGCGUGGCAAAUUGGCUUUGGCUAGACUGCC [U9G C10U G27U G33U], the self-cleavage worked out at 0.08.
GGCAGAGCGCUACACAGCGUGGCAAGAUGGCUGUGGCUAGACUGAC [U9G A11U A26G G27A C45A]: the self-cleavage is 0.
Take GGCAGAGCGCAACACCGCGUGGCAGAGUGGUUGUGGCUAGACUGCC [U9G A16C A25G C31U]: the self-cleavage turned out to be 0.02.
With GGCAGAGCGUAACACAGCGUGGCAAAUUGGCUGUGGCUAGACUGCC [U9G C10U G27U], the self-cleavage was determined as 0.03.
For GGCAGAGCGCAACACAGCGUGGCAAAGUGGCUGUGGAGAGACUGCC [U9G C37A U38G], the self-cleavage came out at 0.03.
Take GGCAGAGCGCAACACAGCGUGGCUAAGUGGGCGUGGCUAGACUGCC [U9G A24U C31G U32C]: the self-cleavage is 0.04.
As for GGCAGAGCGCAACACAGCCUGUCAAAGUAGAUGUGGCUAGACUGCC [U9G G19C G22U G29A C31A], the self-cleavage was 0.06.
As for GGCAGAGCGCAACACAGCGUGGCUAAGUGGCUGUGGCUACACUGCC [U9G A24U G40C], the self-cleavage turned out to be 0.06.
For GGCAGAGCGCAACAAAUCGUGGCAAAGUGGCUUAGGCUAGACUGCC [U9G C15A G17U G33U U34A], the self-cleavage worked out at 0.09.
As for GGCAGAGCGCAACCCAGCGUGGCAAAGUGGCGGUGGCUAGACUGCC [U9G A14C U32G], the self-cleavage is 0.01.
Under GGCAGAGCGCAACACUGCGUGGCUAAGUGCCUGUGGCUAGACUGCC [U9G A16U A24U G30C] stands 0.

The values above are taken from the RNAGym collection of RNA variant scans (doi:10.7554/elife.90254).
